# Experimental data from PubChem BioAssay AID588855 (National Center for Advancing Translational Sciences (NCATS), 2011).
# Out of some 410,000 compounds screened, about 5,000 (1.2%) were called active. This list was built around the results that the source calls inconclusive (neither active nor inactive); the mix of calls is not that of the screen. Calls come from the whole dose curve; as a rule, active = well fitted inhibition curve with a large enough effect; inconclusive = small, poorly fitted or top-dose-only effect; inactive = no such curve, though single readings can be large or run the other way. A potency beside an inconclusive call is a rough fit, not a confirmed value.
# Experiment: qHTS for Inhibitors of TGF-b; note: nearly all actives have a fitted effect of over 65% in size
# Conditions: HepG2 CAGA-GFP TGF-b/SMAD3 reporter, GFP fluorescence, 18 h, TGF-beta stimulated, 500 pg/mL final; series mostly up to 46.1 µM; activity, negative = inhibition: at the top concentration
# Outline: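 Smad-responsive CAGA-GFP expression was quantified in HEPG2 cells exposed to compounds and 500 pg/mL final TGF-beta for 18 h at 37 degrees C; unstimulated wells defined full inhibition.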
# % is set by controls: 0 for no effect and ±100 for the full control effect; potency is the fitted concentration of half-maximal effect; tags give direction and shape of the fitted curve.
SMILES,Potency,"activity, negative = inhibition"
O=C(Nc1nnc(C2CC2)o1)c1ccc(S(=O)(=O)N2CCCc3ccccc32)cc1,"inconclusive: 11.2 µM [inhibitor, partial curve]",
COc1c(C)cc(C(O)c2ncc(-c3ccc(C(F)(F)F)cc3)[nH]2)cc1C (stereo unspecified),"inconclusive: 35.5 µM [inhibitor, single point]",
COc1ccc(C2c3c(-c4ccccc4O)n[nH]c3C(=O)N2CCc2ccc(OC)c(OC)c2)cc1 (stereo unspecified),"inconclusive: 31.6 µM [inhibitor, single point]",
O=C(Cn1cc([N+](=O)[O-])nc1[N+](=O)[O-])N1CCN(c2ccccc2)CC1,"inconclusive: 12.6 µM [inhibitor, partial curve]",
O=C(C[n+]1ccc(-c2cc(C(=O)Nc3cccc(C(F)(F)F)c3)c3ccccc3n2)cc1)c1cccc([N+](=O)[O-])c1,"inconclusive: 12.6 µM [inhibitor, single point]",
COc1ccc(Cn2c(CCC(=O)Nc3cc(OC)c(OC)c(OC)c3)nc3cccnc32)cc1,,inactive: -0.738%
COc1cc(/C=N/NC(=O)c2cc(-c3cccc(Br)c3)nc3ccccc23)cc(OC)c1O,"inconclusive: 11.2 µM [inhibitor, partial curve, poor fit]",
Cc1ccccc1Oc1ccc2c(c1)[C@@H]1C[C@H]3[C@@H](C(=O)N1CC2)[C@H](C)ON3C,"inconclusive: 8.91 µM [inhibitor, partial curve]",
Cc1ccc2[nH]c(C(=O)N/N=C/c3ccccc3C(=O)O)c(-c3ccccc3)c2c1,"inconclusive: 7.08 µM [inhibitor, partial curve]",
CCOc1ccc(CC(=O)NCCS(=O)(=O)N2CCN(c3ccccc3)CC2)cc1,"inconclusive: 11.2 µM [inhibitor, single point]",
COc1ccc(OC)c2c(C)ccnc12,active: 7.94 µM,
CCN(Cc1nc2ccccc2c(=O)[nH]1)C(=O)c1cccc(OCc2c(C)noc2C)c1,"inconclusive: 35.5 µM [inhibitor, single point]",
Cn1cc(-c2cc3n(n2)CCC(=O)N3CCCC(=O)NCc2ccc(Cl)cc2)c2ccccc21,"inconclusive: 25.1 µM [inhibitor, single point]",
COc1cc(OC)c(-c2nc(-c3ccncc3)no2)cc1OC,"inconclusive: 35.5 µM [inhibitor, single point]",
CCCN(CC(=O)Nc1ccccc1C)C(=O)c1ccc(N2CCCC(C)C2)c([N+](=O)[O-])c1 (stereo unspecified),"inconclusive: 35.5 µM [inhibitor, single point]",
Nc1cccnc1Sc1cc(Cl)cc(Cl)c1,"inconclusive: 10 µM [inhibitor, partial curve, poor fit]",
C[C@@H]1CN([C@@H](C)CO)C(=O)CCCn2nncc2CO[C@@H]1CN(C)C(=O)Nc1ccccc1C(F)(F)F,"inconclusive: 6.31 µM [inhibitor, partial curve, poor fit]",
CCC1Oc2ccc(C)cc2N(CC(=O)N2CCN(c3ccc(F)cc3)CC2)C1=O (stereo unspecified),"inconclusive: 35.5 µM [inhibitor, partial curve, poor fit]",
NS(=O)(=O)c1cc(C(=O)NNC(=O)c2ccc3c(c2)OCO3)ccc1Cl,"inconclusive: 1.26 µM [inhibitor, full curve, poor fit]",
Cc1ccc(NC(=S)N2CCN(S(=O)(=O)c3ccccc3)CC2)cc1,,inactive: 0%
O=S(=O)(Nc1ccc2c3c(cccc13)CC2)c1ccc(F)cc1,"inconclusive: 7.94 µM [inhibitor, partial curve, poor fit]",
O=C(Cn1c(=O)n(Cc2nc(-c3ccccc3)no2)c(=O)c2ccccc21)Nc1cccc(C(F)(F)F)c1,"inconclusive: 6.31 µM [inhibitor, partial curve, poor fit]",

SMILES,Potency,"activity, negative = inhibition"
N#Cc1c(N)nc(SCc2ccncc2)c(C#N)c1-c1cccs1,"inconclusive: 25.1 µM [inhibitor, single point]",
CC(C)(C)C1CCC(=O)N(CCSc2ccccc2)CC1 (stereo unspecified),"inconclusive: 15.8 µM [inhibitor, single point]",
Cc1cccc2sc(N(Cc3cccnc3)C(=O)CCc3ccccc3)nc12,active: 11.2 µM,
CCOC(=O)c1ccc(N2C(=O)c3[nH]nc(-c4ccccc4)c3C2c2ccc(CC)cc2)cc1 (stereo unspecified),active: 11.2 µM,
COc1cccc2cc(-c3cn4cccc(C)c4n3)c(=O)oc12,"inconclusive: 3.98 µM [inhibitor, single point]",
Cc1c(NC(=O)/C(C#N)=C/c2ccc(-c3ccc(Cl)c(Cl)c3)o2)c(=O)n(-c2ccccc2)n1C,"inconclusive: 10 µM [inhibitor, partial curve, poor fit]",
CSc1ccc(C(=O)C2CCCN(C(=O)c3cc4cc(F)ccc4[nH]3)C2)cc1 (stereo unspecified),,inactive: -9.58%
O=[N+]([O-])c1ccccc1NCCNc1ncc(C(F)(F)F)cc1Cl,"inconclusive: 35.5 µM [inhibitor, single point]",
O=C(NCc1cccs1)c1ccc2c(=O)n3nc(Nc4ccccc4)sc3nc2c1,"inconclusive: 3.16 µM [inhibitor, single point]",
Cc1c(C(=O)NCc2ccc(Cl)c(Cl)c2)sc(=O)n1Cc1ccc(C(=O)N(C)C)cc1,"inconclusive: 22.4 µM [inhibitor, single point]",
Cc1ccc2c(c1Br)C(O)(CC(=O)c1ccc(F)cc1)C(=O)N2 (stereo unspecified),"inconclusive: 10 µM [inhibitor, partial curve, poor fit]",
COc1ccc(-c2nc3ccc(C)cn3c2Cc2ccc(C)cc2)cc1OC,"inconclusive: 12.6 µM [inhibitor, partial curve, poor fit]",
COc1ccc(-c2cn[nH]c2-c2ccc(OC)cc2)cc1,"inconclusive: 35.5 µM [inhibitor, single point]",
C/C(=N\NC(=O)c1ccc(Br)cc1)C1C(=O)c2ccccc2C1=O,"inconclusive: 12.6 µM [inhibitor, partial curve, poor fit]",
NC(=O)C(OC(=O)CNC(=O)C1CCCCC1)c1ccccc1 (stereo unspecified),,inactive: 5.49%
O=C(COc1ccccc1F)Nc1ccc2nc(SCCOc3ccccc3)sc2c1,,inactive: -6.24%
Cc1ccc(C(=O)COC(=O)c2nc(Cl)ccc2Cl)cc1,,inactive: 12%
O=C(Nc1ccc(Cl)cn1)C1CCN(c2ncnc3c2nc2n3CCCCC2)CC1,"inconclusive: 10 µM [inhibitor, partial curve, poor fit]",
Cn1c(/N=C/c2cccs2)nc2ccccc21,"inconclusive: 3.16 µM [inhibitor, full curve]",
CCc1ccc(OC(C)C(=O)N2CCC(c3nc4ccccc4o3)CC2)cc1 (stereo unspecified),"inconclusive: 3.98 µM [inhibitor, partial curve, poor fit]",
CS(=O)(=O)c1ccc(S(=O)CC(=O)OCc2ccccc2)c([N+](=O)[O-])c1 (stereo unspecified),active: 4.47 µM,
COc1ccc(S(=O)(=O)NCC(c2ccco2)S(=O)(=O)c2ccc(C)cc2)cc1F (stereo unspecified),"inconclusive: 20 µM [inhibitor, single point]",

SMILES,Potency,"activity, negative = inhibition"
CC1=C/C(=N\NC(=O)c2ccc(O)cc2)CC1,,inactive: -3.96%
Cn1c(=O)cc(SCC(=O)N2CCCC2)c2ccccc21,"inconclusive: 1.78 µM [inhibitor, partial curve, poor fit]",
COc1ccc(N2CCN(C(=O)c3ccc(CSc4ccccc4)cc3)CC2)cc1,,inactive: -6.16%
COc1ccccc1CN(C(=O)CCl)C(C(=O)NC1CCCCC1)c1ccncc1 (stereo unspecified),,inactive: -3.96%
CC(C)c1ccc(Cn2c(COc3ccccc3)nc3ccccc32)cc1,"inconclusive: 35.5 µM [inhibitor, single point]",
O=C(Cn1nc(C(F)(F)F)c2c1CCC2)NC1CCCCC1,,inactive: -6.43%
C[C@H](CO)N1C[C@H](C)[C@@H](CN(C)Cc2ccc(F)cc2)Oc2ncc(Br)cc2C1=O,,inactive: -0.482%
COc1ccccc1/C=N/NC(=S)Nc1cccnc1,"inconclusive: 12.6 µM [inhibitor, partial curve, poor fit]",
Cc1ccc(S(=O)(=O)N2CCC(C(=O)Nc3nnc(COc4ccccc4)s3)CC2)cc1,"inconclusive: 35.5 µM [inhibitor, single point]",
COc1ccc2nc(NC(=O)c3ccccc3F)sc2c1,,inactive: 5.21%
CCOC(=O)C1=C(c2ccccc2)NC(=S)NC1c1ccc(C)c([N+](=O)[O-])c1 (stereo unspecified),,inactive: -22.8%
O=C(CNc1cccc(S(=O)(=O)N2CCCC2)c1)Nc1cccc(C(F)(F)F)c1,"inconclusive: 11.2 µM [inhibitor, partial curve, poor fit]",
O=C(CCC(=O)c1ccccc1)NCc1cccc(C(F)(F)F)c1,,inactive: -3.04%
CS(=O)(=O)Nc1ccc(C2=NN(C(=O)c3cccc(F)c3)C(c3cccs3)C2)cc1 (stereo unspecified),,inactive: 11.1%
N#CC(C#N)=CN=c1ccn(Cc2ccc(Cl)cc2Cl)cc1,"inconclusive: 17.8 µM [inhibitor, single point]",
Cc1c(NC(=S)NC(=O)c2cccc([N+](=O)[O-])c2)c(=O)n(-c2ccccc2)n1C,,inactive: -6.9%
O=C(Oc1oc(-c2ccco2)nc1C=Nc1ccc(Cl)cc1)c1ccco1,,inactive: -2.98%
O=C(/C(=C/c1ccc(Cl)cc1)c1nc2ccccc2[nH]1)c1ccccc1,active: 5.01 µM,
O=C(OCc1ccc(Br)cc1)c1cc([N+](=O)[O-])ccc1N1CCOCC1,,inactive: -20.3%
CN(C)S(=O)(=O)N1CCC(Oc2ccc(C(=O)NC3CCCCC3)cc2)CC1,"inconclusive: 35.5 µM [inhibitor, single point]",
COc1cc(/C=C(\C#N)C(=O)NCC2CCCO2)ccc1O (stereo unspecified),inactive,
Cc1ccc(NC(=O)c2n[nH]c(=O)c3ccccc23)cc1S(=O)(=O)N1CCOCC1,,inactive: -0.34%
